Reference: PubChem BioAssay AID1845211 (Molecular Pharmacology Branch, DTP, NCI, 2023)
For part of its entries the source gives two or more results. The list is limited to them. The source may hold further records. The values listed for one entry repeat one measurement in other runs, samples, wells, individuals or studies. Marks such as (2×) give the number of equal values in this list.

Test system: NCI-H322M multicellular tumor spheroids, viability (% test/control)
Test: Anticancer human tumor NCI-H322M cell line growth inhibition;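 as to viability, T/C: spheroids exposed to compound for seven days before readout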
Settings: for viability, T/C: stronger effect = lower value
From the text: Multicellular complex tumor spheroid response to DNA repair inhibitors in combination with DNA-damaging drugs
This study explores the anticancer activities of DNA-damaging drugs and inhibitors of DNA damage repair, both as single agents and in combinations. Complex tumor spheroids comprised of malignant cells, endothelial cells and mesenchymal stem cells served as an in vitro model for human solid tumors. This model system incorporates physiologically relevant features and patient-derived or established malignant cell lines with clinically relevant genetic alterations from many tumor types. Twenty-six patient-derived or established malignant cell lines were evaluated representing sarcoma, melanoma, small cell lung cancer (SCLC), non-small cell lung cancer (NSCLC), as well as bladder, ovarian and pancreatic cancers. The concentration ranges selected for each drug and investigational agent were based upon clinically achievable concentrations if the clinical Cmax of the agent was known.
Compounds. The drugs and compounds olaparib (NSC753686), talazoparib (NSC767125), berzosertib (NSC777718), elimusertib (NSC800525), nedisertib (NSC802822), VX-984 (NSC792969), AZD-1390 (NSC803789), temozolomide (NSC362856), topotecan (NSC609699), trabectedin (NSC813783), staurosporine (NSC755774), and gemcitabine (NSC613327) were obtained from the National Cancer Institute (NCI) Developmental Therapeutics Program Chemical Repository. The FDA-approved anticancer drug set is available from the Developmental Therapeutics Program at https://dtp.cancer.gov/organization/dscb/obtaining/available_plates.htm. […] The stock solutions were prepared in dimethyl sulfoxide (DMSO, Sigma-Aldrich, St. Louis, MO, cat. D2650) at 400-fold the tested concentration and stored at -70 degrees C. Prior to their use, the stock solutions were diluted in fresh medium and the final DMSO concentration in the assay was 0.25% (v/v). All drugs and investigational agents were tested over a range starting from a high concentration at or near the clinical Cmax and decreasing in half-log increments. If the clinical Cmax for an agent had not been determined, the highest concentration tested was 10 microM.
Cell Lines. The patient-derived cancer cell (PDC) lines: 156681-154-R-J1-PDC, 283228-195-R-J1-PDC, 287954-098-R-J1-PDC, 292921-168-R-J2-PDC, 349418-098-R-PDC, 425362-245-T-J1-PDC, 556581-035-R-J1-PDC, and BL0293-F563-PDC were received from the NCI Patient-Derived Models Repository (PDMR, https://pdmr.cancer.gov). The established cell lines HS-SY-2 (RRID:CVCL_8719), MPNST, and SYO-1 (RRID:CVCL_7146) were obtained from the Sloan Kettering Institute. The alveolar soft parts sarcoma cell line ASPS-1 (RRID:CVCL_S738) was established at the NCI and grown from internal seed stocks. The following established cell lines were purchased from the American Type Culture Collection (ATCC, Manassas, VA): G-401 (ATCC, cat. CRL-1441, RRID:CVCL_0270), SW982 (ATCC, cat. HTB-93, RRID:CVCL_1734), VA-ES-BJ (ATCC, cat. CRL-2138, RRID:CVCL_1785), NCI-H719 (ATCC, cat. CRL-5837, RRID:CVCL_1582), NCI-H196 (ATCC, cat. CRL-5823, RRID:CVCL_1509), NCI-H841 (ATCC, cat. CRL-5845, RRID:CVCL_1595), NCI-H1618 (ATCC, cat. CRL-5879, RRID:CVCL_1480), NCI-H1876 (ATCC, cat. CRL-5902, RRID:CVCL_1503), DMS 114 (ATCC, cat. CRL-2066; RRID:CVCL_1174), NCI-H211 (ATCC, cat. CRL-5824; RRID:CVCL_1529), and SW 1271 (ATCC, cat. CRL-2177, RRID:CVCL_1716). The small cell lung cancer cell line COR-L88 was purchased from Sigma-Aldrich (cat. 92031917-1VL, RRID:CVCL_1141). The non-small cell lung cancer cell lines NCI-H226 (RRID:CVCL_1544) and NCI-H322M (RRID:CVCL_1557) were established at the NCI and grown from internal seed stocks. Pooled donor human umbilical vein endothelial cells (HUVEC, Lonza, cat. CC-2519) and human mesenchymal stem cells (hMSC, Lonza, cat. PT-2501) were purchased from Lonza (Walkersville, MD).
Cell Culture. All cells were maintained in an incubator at 37 degrees C and 5% CO2 with 95% humidity. […]

## COc1cc2c(cc1O)CCNC21CSC2c3c(OC(C)=O)c(C)c4c(c3C(COC1=O)N1C(O)C3Cc5cc(C)c(OC)c(O)c5C(C21)N3C)OCO4 (stereo not given)
Compound 30 pM
  viability, T/C: 85.5, 76.5, 76.8, 88.8, 103, 76 (2×), 77.4, 94.7, 82.1%
Compound alone 0.000949 µM
  viability, T/C: 95.2, 82.8, 91.3, 75.3, 75.2, 70.6, 81.5, 73, 87.8, 56.8%

## CC[C@@]1(O)C(=O)OCc2c1cc1n(c2=O)Cc2cc3c(CN(C)C)c(O)ccc3nc2-1
Compound alone 0.00949 µM
  viability, T/C: 80.9, 91.8, 95.6, 94.1, 75.5, 82.9, 68.2, 76, 94.3, 70.2%
Compound alone 0.03 µM
  viability, T/C: 79.1, 84.1, 86, 91.7, 67.7, 83, 62.5, 72.2, 75, 75.7%
Compound alone, run of 12/02/2019
  IC50: 219 nM, 277 nM, > 300 nM, 258 nM

## Cn1nnc2c(C(N)=O)ncn2c1=O
Compound alone 1 µM
  viability, T/C: 90.5 (2×), 104, 96.9, 85.6, 89.6, 101, 113, 98.4, 91.3%
Compound alone 3.16 µM
  viability, T/C: 86.8, 92.5, 75.4, 85.7, 98.3, 105, 96, 99.4, 90.6, 88.6%
Compound alone 10 µM
  viability, T/C: 92.2, 89.8, 71.1, 83.2, 99.6, 90.1, 103, 93.2, 81.4, 71.9%
Compound alone 31.6 µM
  viability, T/C: 82, 99.1, 89.5, 79.3, 94.4, 92.3, 107, 92.1, 94.8, 96.2%
Compound alone 100 µM
  viability, T/C: 89.2, 110, 99.5, 92.2, 119, 106, 95.1, 102, 86.5, 81%
